Laboratory results from ChEMBL document CHEMBL4888484, “Replenishing the malaria drug discovery pipeline: Screening and hit evaluation of the MMV Hit Generation Library 1 (HGL1) against asexual blood stage Plasmodium falciparum ,using a nano luciferase reporter read-out” (2022).
In all, about 150,000 compounds went through this assay and about 540 (0.36%) showed an effect of 50% or more. The list shows a part of the results.

Tested on: Plasmodium falciparum
Test: Primary screen in NF54 nanoGlo assay, in single point, at 2uM, 72h; a lower Z score goes with more inhibition
Type: functional, Erythrocyte
Conditions: timepoint 72 hour

SMILES | % Inhibition | Z score
Cc1noc(C)c1S(=O)(=O)Nc1ncccc1-c1ccccc1 | 4% | -0.45
C=CC[C@H](CC)NC(=O)NCC(=O)Nc1ccccc1 | 10% | -1.8
Cc1ccc(C(=O)N2CCC3(CCc4nn(Cc5ccccc5)c(=O)n4CC3)CC2)s1 | -7% | 0.82
CC(C)n1ncnc1-c1ccc(C(=O)NCCc2nccs2)cc1 | -4% | 0.63
COCCNC(=O)c1cc2cc(NC(=O)c3ccc(C)c(C)c3)ccc2n1Cc1ccc(F)cc1 | 0% | 0.09
CC(C)Cn1ncnc1CN1CCc2ccccc2[C@@H]1CO | 6% | -0.87
O=C(O)[C@H]1CC(=O)N(Cc2scnc2-c2ccccc2)C1 | 1% | -0.18
O=C(CN(CC(=O)N1CCOCC1)S(=O)(=O)c1ccc(Cl)cc1)N1CCOCC1 | 2% | -0.3
Cn1nc(-c2cccnc2)cc1C(=O)NC1(C(F)(F)F)CCCCC1 | -20% | 2.49
Cc1ccc(Oc2nc(C)nc3c2CCCC3)cn1 | -4% | 0.68
CCc1ccc(CCNC(=O)N(C)Cc2nc(C)c[nH]2)cc1 | 5% | -1.01
O=C(COc1ccc(Cl)cc1)NCc1cn(-c2cccs2)nn1 | 14% | -1.82
Cc1cc(-c2nc(C3CC3)nn2-c2ccccn2)on1 | -19% | 2.2
COc1cc([C@@H]2c3c(-c4ccc(F)cc4)n[nH]c3C(=O)N2CCc2c[nH]c3ccccc23)ccc1O | -18% | 2.68
Cc1nn(-c2ccccc2)c(=O)n1CC(=O)NCCCn1ccnc1 | -2% | 0.25
CC(C)c1noc([C@@H]2CCCN2Cc2ccccn2)n1 | -6% | 0.67
COC[C@H](C)NC(=O)C(=O)Nc1ccc(OC)c(Cl)c1 | 1% | -0.16
CC[C@H](OC)C(=O)N1CCC(c2ccc(F)c(F)c2)CC1 | -11% | 1.06
COc1ccc(-c2cnc3ncnn3c2N2CCCCCCCC2)cc1 | 4% | -0.62
CC(C)NC(=O)[C@@H]1C[C@@H](NCc2cc(F)ccc2F)CN1Cc1cccc(Cl)c1 | 6% | -0.85
Cc1ccc(Cc2nc(N3CCN(C(=O)c4ccccc4F)CC3)c3c(C)nn(-c4ccccc4)c3n2)cc1 | -1% | 0.23
Cn1ccnc1C1CC(NS(=O)(=O)c2cccc(Cl)c2O)CCO1 (stereo not drawn) | -3% | 0.39
CCOc1ccc(NC(=O)Cn2c3c(c(=O)n2-c2ccccc2)Cc2ccc(OC)cc2O3)cc1 | -6% | 0.66
CC(C)C(=O)NCCCNC(=O)NCC1(C)CCC1 | -5% | 0.97
COc1cccc(OC)c1CN1CC[C@@]2(CCCN(C3CCCCC3)C2=O)C1 | -9% | 1.21
CN1CCCCC[C@H]1C(=O)N1CCc2[nH]c(-c3ccc(F)cc3F)nc2C1 | -7% | 1.28
Cc1c(C(=O)NCc2ccc(F)cc2)sc2ncnc(N(C)c3ccccc3)c12 | -9% | 1.39

SMILES | % Inhibition | Z score
Cc1nc(C2(NC[C@@H](O)Cc3ccccc3)CCC2)no1 | -14% | 1.41
COc1ccc(C(=O)N(C)CCc2noc(-c3cc4ccc(OC)cc4[nH]3)n2)c(C)c1 | -10% | 1.91
Cc1ccc(S(=O)(=O)Nc2cc(C(=O)O)cnc2N2CCC[C@H](C)C2)cc1C | -3% | 0.35
Cc1cc(C)n([C@@H](C)CNC(=O)CCc2csc(N)n2)n1 | -9% | 1
CN(Cc1nc2ccccc2c(=O)[nH]1)C(=O)c1ccc(N2CCCC2=O)cc1 | 38% | -4.92
C[C@@H]1c2ccccc2CCN1C(=O)c1ccccc1F | -18% | 1.73
CC(=O)c1cn(CC(=O)N2CCNC(=O)C2)c2ccccc12 | 38% | -4.31
CCN(CCC(=O)N(CC#N)CC#N)[C@@H](C)c1ccc(F)cc1 | 4% | -0.53
O=C(c1c[nH]c2ccccc12)N1CCC(c2nnc(C3CC3)o2)CC1 | -1% | 0.08
Cc1ccoc1C(=O)NC1CCN(c2nc3ccccn3c2C#N)CC1 | -14% | 1.42
CC1CN(Cc2nc(N(C)C)no2)CC1N1CCOCC1 (stereo not drawn) | 4% | -0.53
O=S(=O)(CCc1ccccc1)N1CCC(Oc2nncs2)CC1 | -4% | 0.84
CN1C(=O)C[C@H](Nc2ccnc(C#N)n2)[C@H]1c1ccc(Cl)c(F)c1 | -11% | 1.33
CCOc1ccc(NC(=O)Cn2c(C)nc3onc(C)c3c2=O)cc1 | 4% | -0.75
CCN1CCN(c2ncc3c(n2)CCN(Cc2ccc(F)cc2)C3)CC1 | 0% | -0.05
CN(C[C@H]1COc2ccccc2O1)C(=O)CCn1cccn1 | 0% | -0.02
O=C(C[C@@H](c1ccsc1)n1cnnn1)Nc1cccc(O)c1 | 0% | 0.05
CC[C@@H](C(=O)Nc1nnc2nc(C)ccn12)n1cccn1 | -9% | 1.58
O=C(NCC1CC1)[C@]1(F)CCCN(S(=O)(=O)c2ccc(Cl)s2)C1 | -19% | 1.63
CCc1ncnc(N[C@H](CO)Cc2ccccc2)c1F | -3% | 0.39
O=C1CCC2CC1C(=O)N2Cc1ccccc1 (stereo not drawn) | 1% | -0.17
O=S(=O)(c1ccc(OC2CCOCC2)c(F)c1)N(CC(F)F)C1CC1 | 8% | -1.22
Cc1cc(F)cc2c(N3CCC(C)(C)S(=O)(=O)CC3)c(C#N)cnc12 | -3% | 0.59
CCc1ccc(Cn2nc(CC(N)=O)nc2[C@H](C)O)cc1 | -9% | 1.8
Cc1ccc(S(=O)(=O)NCc2nc3cccnc3n2C2CCCC2)cc1 | 7% | -1.04
COC(=O)C1CCN(C(=O)COC(c2ccccc2)c2ccccc2)CC1 | -11% | 1.56
CN(C)CCN(Cc1ccc(C#N)cc1)C(=O)[C@H]1CCCN(C(=O)c2ccc(F)cc2)C1 | -1% | 0.2
